Source: the antibiotic and cytotoxicity screens of Wong et al. (2023)
The list shows a part of the results.

Experiments:
HSkMC = human skeletal muscle cells; experiment: cytotoxicity call (relative viability < 0.9); conditions: 10 µM
S. aureus RN4220 = experiment: growth inhibition call (relative growth <= 0.2); conditions: 50 µM

| Structure (SMILES) | cytotoxicity call (HSkMC) | growth inhibition call (S. aureus RN4220) |
| --- | --- | --- |
| COc1cccc(S(=O)(=O)N2C[C@@H](O)COC[C@@H]3O[C@H](CC(=O)NCCCN4CCOCC4)CC[C@H]32)c1 | inactive | inactive |
| CN(C)CCCC[C@@H]1NC(=O)[C@H]2C[C@@H](C(=O)NCCCCCNC(=O)CS)[C@@H](c3ccc(O)cc3)N2C1=O | inactive | inactive |
| C[C@H](CO)N1C[C@H](C)[C@H](CN(C)S(=O)(=O)c2cccs2)OCCCC[C@H](C)Oc2ccc(NC(=O)NC3CCCCC3)cc2C1=O | inactive | inactive |
| CC(C)NC(=O)N(C)C[C@@H]1Oc2c(NS(=O)(=O)c3ccc(F)cc3)cccc2C(=O)N([C@H](C)CO)C[C@@H]1C | inactive | inactive |
| COC(=O)N[C@H](C(=O)N1CC2(CC2)C[C@H]1c1nc(-c2ccc3c(c2)C(F)(F)c2cc(-c4ccc5nc([C@@H]6[C@H]7CC[C@H](C7)N6C(=O)[C@@H](NC(=O)OC)C(C)C)[nH]c5c4)ccc2-3)c[nH]1)C(C)C | inactive | inactive |
| C[C@@H]1CN([C@H](C)CO)C(=O)c2cccc(NC(=O)Nc3ccc(F)cc3)c2O[C@H]1CN(C)CC1CCCCC1 | inactive | inactive |
| COc1cc(O)c2c(=O)cc(C)oc2c1CC=C(C)C | inactive | inactive |
| CCCN(C)C[C@@H]1OCCCC[C@H](C)Oc2ccc(NC(=O)Nc3ccc4c(c3)OCO4)cc2C(=O)N([C@H](C)CO)C[C@@H]1C | inactive | inactive |
| CO[C@H]1CN(C)C(=O)c2cc(NS(=O)(=O)CC(F)(F)F)ccc2OC[C@H](C)N(Cc2ccccn2)C[C@@H]1C | inactive | inactive |
| C[C@@H]1CCCCO[C@@H](CN(C)C(=O)Cc2ccccc2)[C@@H](C)CN([C@H](C)CO)C(=O)c2cc(NC(=O)Nc3ccc4c(c3)OCO4)ccc2O1 | inactive | inactive |
| C[C@@H]1CN([C@@H](C)CO)C(=O)Cc2cc(N(C)C)ccc2O[C@H]1CN(C)S(=O)(=O)c1ccc(Cl)cc1 | inactive | inactive |
| Cc1noc(C)c1NC(=O)Nc1ccc2c(c1)C(=O)N([C@H](C)CO)C[C@H](C)[C@H](CN(C)C(=O)C1CCCCC1)OCCCC[C@H](C)O2 | inactive | inactive |
| COc1ccc(NC(=O)N(C)C[C@H]2Oc3cc(C#CCN(C)C)ccc3S(=O)(=O)N([C@@H](C)CO)C[C@@H]2C)cc1 | inactive | inactive |
| C[C@H]1CCCCO[C@H](CN(C)Cc2ccc(C(=O)O)cc2)[C@@H](C)CN([C@@H](C)CO)C(=O)c2cc(NC(=O)Cc3ccccc3)ccc2O1 | inactive | inactive |
| C#CC1(OC(C)=O)CCC2C3CCC4=CC(=O)CCC4C3CCC21C (stereo unspecified) | inactive | inactive |
| Cn1ccc2ccc(CN)cc21 | inactive | inactive |
| C[C@@H]1CN([C@@H](C)CO)C(=O)c2cc(NS(=O)(=O)c3cccs3)ccc2O[C@@H]1CN(C)C(=O)Nc1cccc2ccccc12 | inactive | inactive |
| C[C@H]1CN([C@@H](C)CO)C(=O)c2cc(NC(=O)CCCN(C)C)ccc2O[C@H]1CN(C)Cc1ccccc1 | inactive | inactive |
| Cn1c(CC#N)n[nH]c1=S | inactive | inactive |
| O=C(C[C@@H]1C[C@@H]2c3cc(NC(=O)Nc4ccc(C(F)(F)F)cc4)ccc3O[C@@H]2[C@@H](CO)O1)NCc1ccc(Cl)cc1 | inactive | inactive |

| Structure (SMILES) | cytotoxicity call (HSkMC) | growth inhibition call (S. aureus RN4220) |
| --- | --- | --- |
| Cc1cnc(CNC(=O)[C@H]2C[C@H]3[C@@H](CCN3S(C)(=O)=O)O2)cn1 | inactive | inactive |
| Cc1noc(C)c1S(=O)(=O)N(C)C[C@@H]1Oc2ccc(NC(=O)NC3CCCCC3)cc2CC(=O)N([C@@H](C)CO)C[C@H]1C | inactive | inactive |
| COC(=O)[C@@H]1[C@@H](CO)[C@@H]2Cn3c(cccc3=O)[C@@H]2N1C(=O)C1CC1 | inactive | inactive |
| CC(C)NC(=O)Nc1ccc2c(c1)C(=O)N([C@H](C)CO)C[C@@H](C)[C@H](CN(C)S(=O)(=O)c1ccccc1)O2 | inactive | inactive |
| C[C@H](CO)N1C[C@H](C)[C@@H](CN(C)C(=O)CCC(F)(F)F)OCCCC[C@H](C)Oc2ccc(NC(=O)C3CCCCC3)cc2C1=O | inactive | inactive |
| Cc1noc(C)c1S(=O)(=O)Nc1ccc2c(c1)CC(=O)N([C@@H](C)CO)C[C@H](C)[C@H](CN(C)S(=O)(=O)c1ccc(F)cc1)O2 | inactive | inactive |
| C[C@H]1CN([C@@H](C)CO)C(=O)Cc2cc(NC(=O)c3ccncc3)ccc2O[C@@H]1CN(C)Cc1ccc(-c2ccccc2)cc1 | inactive | inactive |
| O=C(C[C@H]1CC[C@@H]2[C@H](COC[C@@H](O)CN2S(=O)(=O)c2ccccc2)O1)NCCN1CCCCC1 | inactive | inactive |
| C[C@H]1CN([C@@H](C)CO)C(=O)c2cc(C#Cc3ccccc3F)cnc2O[C@@H]1CN(C)C(=O)c1ccc2c(c1)OCO2 | inactive | inactive |
| O=C(C[C@@H]1C=C[C@H](NS(=O)(=O)c2ccccc2F)[C@H](CO)O1)NCCCN1CCOCC1 | inactive | inactive |
| COc1ccccc1CNC(=O)C[C@@H]1CC[C@H]2[C@@H](COC[C@H](O)CN2C(=O)Nc2ccc(F)cc2)O1 | inactive | inactive |
| C[C@@H]1CCCCO[C@H](CN(C)CC2CCCCC2)[C@H](C)CN([C@@H](C)CO)C(=O)c2cc(NC(=O)c3ccncc3)ccc2O1 | inactive | inactive |
| COc1ccc(S(=O)(=O)Nc2ccc3c(c2)C(=O)N([C@H](C)CO)C[C@H](C)[C@H](CN(C)C(=O)Nc2ccc4c(c2)OCO4)OCCCC[C@H](C)O3)cc1 | inactive | inactive |
| COc1cc(OC)c(S(=O)(=O)N(C)Cc2ccccc2)cc1S(=O)(=O)N(C)Cc1ccccc1 | inactive | inactive |
| C[C@H](NC(=O)N(C)C[C@H]1OCc2ccccc2-c2ccccc2C(=O)N([C@H](C)CO)C[C@@H]1C)c1ccccc1 | inactive | inactive |
| N[C@H]1CCCC[C@@H]1N1C(=O)CSC1=O | inactive | inactive |
| C[C@@H]1CN([C@@H](C)CO)C(=O)Cc2cc(NC(=O)Nc3ccc(C(F)(F)F)cc3)ccc2O[C@H]1CN(C)Cc1ccc(C(=O)O)cc1 | inactive | inactive |
| C[C@@H]1CN([C@H](C)CO)C(=O)c2cc(NC(=O)Nc3cccc4ccccc34)ccc2O[C@H]1CN(C)Cc1ccncc1 | inactive | inactive |
| COc1c(O[C@@H]2O[C@H](CO)[C@@H](O)[C@H](O)[C@H]2O)cc2oc(-c3ccc(O)c(O)c3)c(O)c(=O)c2c1O | inactive | inactive |
| COc1ccc(NC(=O)Nc2ccc3c(c2)C(=O)N([C@H](C)CO)C[C@H](C)[C@H](CN(C)Cc2ccc(C(F)(F)F)cc2)OCCCC[C@H](C)O3)cc1 | inactive | inactive |

| Structure (SMILES) | cytotoxicity call (HSkMC) | growth inhibition call (S. aureus RN4220) |
| --- | --- | --- |
| Cc1ccc(S(=O)(=O)Nc2ccc3c(c2)C(=O)N([C@H](C)CO)C[C@@H](C)[C@H](CN(C)CC2CCCCC2)OCCCC[C@@H](C)O3)cc1 | inactive | inactive |
| C[C@@H]1CCCCO[C@H](CN(C)S(=O)(=O)c2ccccc2)[C@@H](C)CN([C@@H](C)CO)C(=O)c2cc(NC(=O)Nc3cccc4ccccc34)ccc2O1 | inactive | inactive |
| C[C@@H]1CCCCO[C@H](CN(C)C(=O)NC2CCCCC2)[C@@H](C)CN([C@H](C)CO)C(=O)c2cc(NC(=O)Nc3ccccc3)ccc2O1 | inactive | inactive |
| CN(C)Cc1cn(CC[C@H]2CC[C@@H](NS(=O)(=O)c3ccccc3)[C@H](CO)O2)nn1 | inactive | inactive |
| CCCN(C)C[C@@H]1OCCCC[C@@H](C)Oc2ccc(NC(=O)CCC(F)(F)F)cc2C(=O)N([C@@H](C)CO)C[C@@H]1C | inactive | inactive |
| Cc1noc(C)c1NC(=O)N(C)C[C@H]1OCCCC[C@@H](C)Oc2ccc(NC(=O)CCC(F)(F)F)cc2C(=O)N([C@H](C)CO)C[C@H]1C | inactive | inactive |
| C[C@H](CO)N1C[C@H](C)[C@@H](CN(C)Cc2ccc(C(=O)Nc3ccccc3N)cc2)Oc2ccc(NC(=O)NC3CCCCC3)cc2CC1=O | inactive | inactive |
| Cc1ccc(S(=O)(=O)Nc2ccc3c(c2)C(=O)N([C@@H](C)CO)C[C@H](C)[C@@H](CN(C)C(=O)Nc2cccc4ccccc24)OCCCC[C@@H](C)O3)cc1 | inactive | inactive |
| CN1CCN(C(=O)C[C@@H]2CC[C@@H]3[C@@H](COc4ccc(NC(=O)c5cscn5)cc4C(=O)N3C)O2)CC1 | inactive | inactive |
| C[C@@H]1CN([C@@H](C)CO)S(=O)(=O)c2ccc(C#Cc3ccccc3)cc2O[C@H]1CN(C)S(C)(=O)=O | inactive | inactive |
| C[C@@H]1CCCCO[C@@H](CN(C)S(=O)(=O)c2ccccc2)[C@H](C)CN([C@H](C)CO)C(=O)c2cc(NS(C)(=O)=O)ccc2O1 | inactive | inactive |
| O=C(C[C@H]1C=C[C@H](NC(=O)C2CC2)[C@@H](CO)O1)NCCCN1CCOCC1 | inactive | inactive |
| CCN[C@H]1CCS(=O)(=O)C1 | inactive | inactive |
| CO[C@@H]1CN(C)C(=O)c2cc(NC(=O)C3CCCC3)ccc2OC[C@@H](C)N(C(=O)Nc2ccc(C(F)(F)F)cc2)C[C@H]1C | inactive | inactive |
| C[C@@H]1CN([C@H](C)CO)S(=O)(=O)c2ccc(-c3ccc(C(=O)N(C)C)cc3)cc2O[C@H]1CN(C)C(=O)Cc1ccccn1 | inactive | inactive |
| Cc1ccc(S(=O)(=O)N(C)C[C@@H]2Oc3ccc(NC(=O)CCCN(C)C)cc3C(=O)N([C@@H](C)CO)C[C@H]2C)cc1 | inactive | inactive |
| CC(C)CC#Cc1ccc2c(c1)O[C@H](CN(C)C(=O)c1ccccn1)[C@H](C)CN([C@H](C)CO)S2(=O)=O | inactive | inactive |
| COc1ccc(NC(=O)Nc2ccc3c(c2)CC(=O)N([C@@H](C)CO)C[C@@H](C)[C@H](CN(C)Cc2ccc(Cl)c(Cl)c2)O3)cc1 | inactive | inactive |
